The values below come from a collection of fitness landscapes (doi:10.1016/j.celrep.2020.107928).

B1: Caulobacter ParB omega fusion; a variant is named by its letters at X, in order, B8GW30 (parent)
chain: MESVVVGEPGMSEGRRGLGRGLSALLGEVDAAPAQAPGEQLGGSREAPIEILQRNPDQPRRTFREEDLEDLSNSIREKGVLQPILVRPSPDTAGEYQIVAGERAWRAAQRAGLKTVPIMVRELDDLAVLEIGIIENVQRADLNVLEEALSYKVLMEKFERTQENIAQTIGKSXSHVANXMRLLXLPDEVQSYLVSGELTAXHARAIAAAADPVALAKQIIEGGLSVRETEALARKAPNLSAGKSKGGRPPRVKDTDTQALESDLSSVLGLDVSIDHRGSTGTLTITYATLEQLDDLCNRLTRGI

Whole data set: some 81,000 sequences, median “one-hybrid fitness for binding parS DNA” near -0.17, cut for the highest 2% near 0.51. Some of the results follow.

The variants in this experiment derive from B1. The experiment is described as follows: one-hybrid fitness for binding parS DNA (scaled: cognate 1, non-cognate 0); higher = stronger binding. Particulars: with parS DNA site. The essentials:
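Bacterial one-hybrid selection in E. coli USO rpoZ- hisB- pyrF- with a HIS3 reporter carrying the site 19 bp from the promoter, screening Caulobacter ParB libraries with four specificity codons randomised (NNS). Cells grew 48 hours at 37°C on M9-minus-histidine plus 0.1 mM IPTG and 5 mM 3-AT. Plasmids before and after selection were Illumina-sequenced, three replicate libraries pooled, and variants under 10 reads dropped. Fitness is the log change in variant-to-wild-type read ratio, rescaled to cognate 1, non-cognate 0.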
With LACC, the “one-hybrid fitness for binding parS DNA” value was not above 0.2.
In the case of DCHT, the “one-hybrid fitness for binding parS DNA” value was not above 0.2.
To QCRP belongs not above 0.2; to AAQL, not above 0.2.
The figure for TMRM is not above 0.2.
As to YQFV, the “one-hybrid fitness for binding parS DNA” value was not above 0.2.
Turning to AYWW, the “one-hybrid fitness for binding parS DNA” value was not above 0.2.
Consider QVES, for which the “one-hybrid fitness for binding parS DNA” value was not above 0.2.
As for DPIL, the “one-hybrid fitness for binding parS DNA” value was not above 0.2.
To RKIW belongs not above 0.2.
As to CIVS, the “one-hybrid fitness for binding parS DNA” value is not above 0.2.
To PKQT belongs not above 0.2.
For WLTT, the “one-hybrid fitness for binding parS DNA” value was not above 0.2.
To LPYS belongs not above 0.2; to FYCC, not above 0.2; to DLKT, not above 0.2.
Consider HFNC, for which the “one-hybrid fitness for binding parS DNA” value is not above 0.2.
The figure for CKCR is not above 0.2; for VGVS it is not above 0.2.
The figure for DHHQ is 0.317; for PCNM it is not above 0.2.
For the variant RYQS, the “one-hybrid fitness for binding parS DNA” value was 0.912.
With KVLS, the “one-hybrid fitness for binding parS DNA” value was not above 0.2.
To AVRW belongs not above 0.2.
As for MMPI, the “one-hybrid fitness for binding parS DNA” value was not above 0.2.
The figure for DALH is not above 0.2; for SNNY it is not above 0.2.
The figure for REFL is not above 0.2; for ITRG it is not above 0.2.
On to RYFF, for which the “one-hybrid fitness for binding parS DNA” value came out at 0.256.
The figure for VDNT is not above 0.2; for TFGR it is not above 0.2; for GEFS it is not above 0.2.
For the variant QFME, the “one-hybrid fitness for binding parS DNA” value is not above 0.2.
For the variant PTID, the “one-hybrid fitness for binding parS DNA” value was not above 0.2.
As for IVWT, the “one-hybrid fitness for binding parS DNA” value is not above 0.2.
To ISRL belongs not above 0.2; to VWRG, not above 0.2; to WAQC, not above 0.2.
To MCMV belongs 0.255; to TQVW, not above 0.2.
For FTGT, the “one-hybrid fitness for binding parS DNA” value was not above 0.2.
For HRLY, the “one-hybrid fitness for binding parS DNA” value is not above 0.2.
The figure for RFYS is 1.01; for QGTF it is not above 0.2.
KLES: the “one-hybrid fitness for binding parS DNA” value was not above 0.2.
The figure for QKSK is not above 0.2; for WCLC it is not above 0.2.
For the variant GRDC, the “one-hybrid fitness for binding parS DNA” value is not above 0.2.
In the case of ANST, the “one-hybrid fitness for binding parS DNA” value was not above 0.2.
To GFGC belongs not above 0.2.
The figure for GHTF is not above 0.2.
The figure for CAKM is not above 0.2; for TCNH it is not above 0.2.
For TDLT, the “one-hybrid fitness for binding parS DNA” value was not above 0.2.
To QQKF belongs not above 0.2; to SEIT, not above 0.2; to KIGG, not above 0.2.
RVEK: the “one-hybrid fitness for binding parS DNA” value was not above 0.2.
IIHV: the “one-hybrid fitness for binding parS DNA” value was not above 0.2.
On to TWPD, for which the “one-hybrid fitness for binding parS DNA” value was not above 0.2.
The figure for AMCL is not above 0.2; for KQFG it is not above 0.2.
To RHTT belongs 0.868.
The figure for HNRY is not above 0.2; for CGLL it is not above 0.2; for YPES it is not above 0.2.
Regarding PNRK, the “one-hybrid fitness for binding parS DNA” value was not above 0.2.
Regarding RDKY, the “one-hybrid fitness for binding parS DNA” value was not above 0.2.
Regarding TELY, the “one-hybrid fitness for binding parS DNA” value was not above 0.2.
Take GDPA: the “one-hybrid fitness for binding parS DNA” value was not above 0.2.
As to RKHR, the “one-hybrid fitness for binding parS DNA” value is not above 0.2.
The figure for TKFT is not above 0.2; for KWTR it is not above 0.2; for SHVT it is not above 0.2.
With QMRG, the “one-hybrid fitness for binding parS DNA” value was not above 0.2.
The figure for INML is not above 0.2; for KDAG it is not above 0.2.
Consider TQNM, for which the “one-hybrid fitness for binding parS DNA” value was not above 0.2.
As for GGSK, the “one-hybrid fitness for binding parS DNA” value is not above 0.2.
KQFS: the “one-hybrid fitness for binding parS DNA” value is not above 0.2.
To PLPA belongs not above 0.2; to RYNV, not above 0.2.
Regarding EKCT, the “one-hybrid fitness for binding parS DNA” value is not above 0.2.
As for PTCI, the “one-hybrid fitness for binding parS DNA” value is not above 0.2.
The figure for PGGN is not above 0.2.
GYKS: the “one-hybrid fitness for binding parS DNA” value is not above 0.2.
Take PAHN: the “one-hybrid fitness for binding parS DNA” value was not above 0.2.
In the case of ISNR, the “one-hybrid fitness for binding parS DNA” value is not above 0.2.
Turning to TIDD, the “one-hybrid fitness for binding parS DNA” value is not above 0.2.
On to RGGM, for which the “one-hybrid fitness for binding parS DNA” value is not above 0.2.
The figure for GHQD is not above 0.2; for PSHA it is not above 0.2; for QTIF it is not above 0.2.
The figure for IWMG is not above 0.2; for IVNR it is not above 0.2; for RTCL it is not above 0.2.
Turning to GRPV, the “one-hybrid fitness for binding parS DNA” value was not above 0.2.
Consider TCKN, for which the “one-hybrid fitness for binding parS DNA” value is not above 0.2.
To GVGP belongs not above 0.2.
Consider HRIS, for which the “one-hybrid fitness for binding parS DNA” value is not above 0.2.
The figure for CPLG is not above 0.2; for SCAM it is not above 0.2.
Consider AWWS, for which the “one-hybrid fitness for binding parS DNA” value was not above 0.2.
Consider QFLY, for which the “one-hybrid fitness for binding parS DNA” value was not above 0.2.
As to CKGR, the “one-hybrid fitness for binding parS DNA” value is not above 0.2.
The figure for YGFR is not above 0.2; for DAGE it is not above 0.2.
Take QPNK: the “one-hybrid fitness for binding parS DNA” value was not above 0.2.
In the case of RRDK, the “one-hybrid fitness for binding parS DNA” value was not above 0.2.
As to LPPS, the “one-hybrid fitness for binding parS DNA” value was not above 0.2.
Regarding YRSR, the “one-hybrid fitness for binding parS DNA” value is not above 0.2.
For the variant FNDR, the “one-hybrid fitness for binding parS DNA” value was not above 0.2.
To YVLM belongs not above 0.2; to RTLW, 0.253; to VQNT, not above 0.2.
With VMRE, the “one-hybrid fitness for binding parS DNA” value is not above 0.2.
The figure for GVPK is not above 0.2; for CYSP it is not above 0.2; for EHQF it is not above 0.2.
To IYQV belongs not above 0.2; to TTFV, not above 0.2; to PPPI, not above 0.2.
Take MVKT: the “one-hybrid fitness for binding parS DNA” value was not above 0.2.
To ISIH belongs not above 0.2; to LILT, not above 0.2.
The figure for GRSC is not above 0.2; for AHIR it is not above 0.2; for DNTM it is not above 0.2.
The figure for KNWT is not above 0.2; for KKIS it is not above 0.2; for SATN it is not above 0.2.
As to MVNT, the “one-hybrid fitness for binding parS DNA” value was not above 0.2.
In the case of HDED, the “one-hybrid fitness for binding parS DNA” value is not above 0.2.
The figure for NSQY is not above 0.2; for GESA it is not above 0.2; for EPVS it is not above 0.2.
To SPDC belongs not above 0.2; to GAPL, not above 0.2; to VRHN, not above 0.2.
For the variant FDQE, the “one-hybrid fitness for binding parS DNA” value is not above 0.2.
The figure for LQVV is not above 0.2; for EQLY it is not above 0.2; for KKCS it is not above 0.2.
Consider GSIG, for which the “one-hybrid fitness for binding parS DNA” value is not above 0.2.
The figure for CPVG is not above 0.2; for HNES it is not above 0.2; for TMAT it is not above 0.2.
To PLDE belongs not above 0.2; to GTDR, not above 0.2; to CAKF, not above 0.2.
The figure for VETL is not above 0.2; for NNMF it is not above 0.2; for RIHY it is 0.461.
On to IHPQ, for which the “one-hybrid fitness for binding parS DNA” value is not above 0.2.
Take RMFG: the “one-hybrid fitness for binding parS DNA” value came to 1.
The figure for TISS is not above 0.2; for HIKL it is not above 0.2; for QTMK it is not above 0.2.
To HLCL belongs not above 0.2.
Consider CPKM, for which the “one-hybrid fitness for binding parS DNA” value was not above 0.2.
To ADQR belongs not above 0.2.
For QRMR, the “one-hybrid fitness for binding parS DNA” value is not above 0.2.
The figure for GGPY is not above 0.2.
For the variant PSAC, the “one-hybrid fitness for binding parS DNA” value was not above 0.2.
To VWDG belongs not above 0.2.
Regarding CVSR, the “one-hybrid fitness for binding parS DNA” value is not above 0.2.
In the case of LAMM, the “one-hybrid fitness for binding parS DNA” value was not above 0.2.
The figure for LAAT is not above 0.2; for PWAT it is not above 0.2.
Regarding QHDS, the “one-hybrid fitness for binding parS DNA” value is not above 0.2.
As for NLPN, the “one-hybrid fitness for binding parS DNA” value was not above 0.2.
Take SWPP: the “one-hybrid fitness for binding parS DNA” value is not above 0.2.
Take SYNE: the “one-hybrid fitness for binding parS DNA” value is not above 0.2.
The figure for MVIC is not above 0.2; for REVY it is not above 0.2; for MQGF it is not above 0.2.
In the case of VSIV, the “one-hybrid fitness for binding parS DNA” value was not above 0.2.
Regarding LNST, the “one-hybrid fitness for binding parS DNA” value is not above 0.2.
As for IVLN, the “one-hybrid fitness for binding parS DNA” value is not above 0.2.
With DGRT, the “one-hybrid fitness for binding parS DNA” value was not above 0.2.
To SSYE belongs not above 0.2; to TYGT, not above 0.2.
Consider RFKL, for which the “one-hybrid fitness for binding parS DNA” value was not above 0.2.
To LQTG belongs not above 0.2.
Turning to HPER, the “one-hybrid fitness for binding parS DNA” value is not above 0.2.
The figure for IDSL is not above 0.2; for KWSM it is not above 0.2.
Take AHTM: the “one-hybrid fitness for binding parS DNA” value was not above 0.2.
HLPT: the “one-hybrid fitness for binding parS DNA” value was not above 0.2.
With PWLA, the “one-hybrid fitness for binding parS DNA” value is not above 0.2.
To GRSW belongs not above 0.2; to EPSG, not above 0.2.
To RVNN belongs 0.416; to RGYM, not above 0.2.
